# Experimental data reported in the supplement of paper PMC8728848.
# The other results are listed elsewhere or left out.
# B1: SP16665A-bot-344-23-344 (Bacteroides ovatus) (protein)
# chain: SDNEFPDFDYQTVYFANQYGLRTIELGESEFVDNTLDNQHKMVIKAAWGGGYTNRNNVVINFKVDESLCDNLYFKDTDQPLVPMPASYYTLASDRIAIPKGQIMAGVEVQLTDDFFADEKSISENYVIPLLMTNVQGADSILQGKPVVENPVLTNAGDWSILPQNFVLYAVKYVNPWHGEYLRRGIDHATVAGTSKDIIRHEQFVENDEVVNISTKSMKDNLLTLKTKDESGKDISYTVRLSFAEDGSCTVHSGSQNVVVSGSGKFVSKGEKNSLGGKDRNAIYLDYTVNLTDNNIQLATKDTLVLRTRNVYGGKSLEVVRK
# Legend:
# Experiment in all cases: glycan array binding signal (z-score within array); higher = stronger binding
# Details in all cases: glycan notation: IUPAC condensed, linker removed
# [1] = target: Neu5Ac(a2-3)Gal(b1-3)GlcNAc(b1-2)Man(a1-3)[GlcNAc(b1-4)][Neu5Ac(a2-3)Gal(b1-3)GlcNAc(b1-2)Man(a1-6)]Man(b1-4)GlcNAc(b1-4)GlcNAc
# Summary of the method: (§1)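 Glycan array binding is given as a within-array Z-score, which can be read as non-binding when negative. The arrays, 3228 of them, came from the Consortium for Functional Glycomics database and were retained only where the protein sequence was available. Z-scores were averaged across arrays of the same protein sequence at different concentrations or buffers and across linkers.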
# [2] = target: Neu5Ac(a2-3)Gal(b1-3)GlcNAc(b1-2)Man(a1-3)[Neu5Ac(a2-3)Gal(b1-3)GlcNAc(b1-2)Man(a1-6)]Man(b1-4)GlcNAc(b1-4)GlcNAc
# Summary of the method: as §1
# [3] = target: Neu5Ac(a2-3)Gal(b1-3)GlcNAc(b1-3)Gal(b1-3)GlcNAc
# Summary of the method: as §1
# [4] = target: Neu5Ac(a2-3)Gal(b1-3)GlcNAc(b1-3)Gal(b1-4)GlcNAc
# Summary of the method: as §1
# [5] = target: Neu5Ac(a2-3)Gal(b1-3)GlcNAc(b1-3)GalNAc
# Summary of the method: as §1
# [6] = target: Neu5Ac(a2-3)Gal(b1-3)GlcNAc(b1-4)Gal(b1-4)Glc
# Summary of the method: as §1
# [7] = target: Neu5Ac(a2-3)Gal(b1-3)GlcNAc(b1-6)GalNAc
# Summary of the method: as §1
# [8] = target: Neu5Ac(a2-3)Gal(b1-3)GlcNAc6S
# Summary of the method: as §1
# [9] = target: Neu5Ac(a2-3)Gal(b1-3)[Fuc(a1-4)]GlcNAc
# Summary of the method: as §1
# [10] = target: Neu5Ac(a2-3)Gal(b1-3)[Fuc(a1-4)]GlcNAc(b1-3)Gal(b1-3)[Fuc(a1-4)]GlcNAc
# Summary of the method: as §1
# [11] = target: Neu5Ac(a2-3)Gal(b1-3)[Fuc(a1-4)]GlcNAc(b1-3)Gal(b1-4)[Fuc(a1-3)]GlcNAc
# Summary of the method: as §1
# [12] = target: Neu5Ac(a2-3)Gal(b1-3)[GlcNAc(b1-6)]GalNAc
# Summary of the method: as §1
# [13] = target: Neu5Ac(a2-3)Gal(b1-3)[Neu5Ac(a2-6)]GalNAc
# Summary of the method: as §1
# [14] = target: Neu5Ac(a2-3)Gal(b1-3)[Neu5Ac(a2-6)]GlcNAc(b1-3)[Fuc(a1-3)[Gal(b1-4)]GlcNAc(b1-6)]Gal(b1-4)Glc
# Summary of the method: as §1
# [15] = target: Neu5Ac(a2-3)Gal(b1-3)]Neu5Ac(a2-3)Gal(b1-4)]GlcNAc
# Summary of the method: as §1
# Neu5Ac(a2-3)Gal(b1-4)Glc = target: Neu5Ac(a2-3)Gal(b1-4)Glc
# Summary of the method: as §1
# [16] = target: Neu5Ac(a2-3)Gal(b1-4)GlcNAc
# Summary of the method: as §1
# [17] = target: Neu5Ac(a2-3)Gal(b1-4)GlcNAc(b1-2)Man
# Summary of the method: as §1
# [18] = target: Neu5Ac(a2-3)Gal(b1-4)GlcNAc(b1-2)Man(a1-3)[GlcNAc(b1-4)][Neu5Ac(a2-3)Gal(b1-4)GlcNAc(b1-2)Man(a1-6)]Man(b1-4)GlcNAc(b1-4)GlcNAc
# Summary of the method: as §1
# [19] = target: Neu5Ac(a2-3)Gal(b1-4)GlcNAc(b1-2)Man(a1-3)[Neu5Ac(a2-3)Gal(b1-4)GlcNAc(b1-2)Man(a1-6)]Man(b1-4)GlcNAc(b1-4)GlcNAc
# Summary of the method: as §1
# [20] = target: Neu5Ac(a2-3)Gal(b1-4)GlcNAc(b1-2)Man(a1-3)[Neu5Ac(a2-3)Gal(b1-4)GlcNAc(b1-2)Man(a1-6)]Man(b1-4)GlcNAc(b1-4)[Fuc(a1-6)]GlcNAc
# Summary of the method: as §1
# [21] = target: Neu5Ac(a2-3)Gal(b1-4)GlcNAc(b1-2)Man(a1-3)[Neu5Ac(a2-6)Gal(b1-4)GlcNAc(b1-2)Man(a1-6)]Man(b1-4)GlcNAc(b1-4)GlcNAc
# Summary of the method: as §1
# [22] = target: Neu5Ac(a2-3)Gal(b1-4)GlcNAc(b1-2)[Neu5Ac(a2-3)Gal(b1-4)GlcNAc(b1-4)]Man(a1-3)[GlcNAc(b1-4)][Neu5Ac(a2-3)Gal(b1-4)GlcNAc(b1-2)[Neu5Ac(a2-3)Gal(b1-4)GlcNAc(b1-6)]Man(a1-6)]Man(b1-4)GlcNAc(b1-4)GlcNAc
# Summary of the method: as §1
# [23] = target: Neu5Ac(a2-3)Gal(b1-4)GlcNAc(b1-2)[Neu5Ac(a2-3)Gal(b1-4)GlcNAc(b1-4)]Man(a1-3)[GlcNAc(b1-4)][Neu5Ac(a2-3)Gal(b1-4)GlcNAc(b1-4)Man(a1-6)]Man(b1-4)GlcNAc(b1-4)GlcNAc
# Summary of the method: as §1
# [24] = target: Neu5Ac(a2-3)Gal(b1-4)GlcNAc(b1-2)[Neu5Ac(a2-3)Gal(b1-4)GlcNAc(b1-6)]Man(a1-6)[Neu5Ac(a2-3)Gal(b1-4)GlcNAc(b1-2)Man(a1-3)]Man(b1-4)GlcNAc(b1-4)GlcNAc
# Summary of the method: as §1
# [25] = target: Neu5Ac(a2-3)Gal(b1-4)GlcNAc(b1-2)[Neu5Ac(a2-3)Gal(b1-4)GlcNAc(b1-6)]Man(a1-6)[Neu5Ac(a2-3)Gal(b1-4)GlcNAc(b1-2)Man(a1-3)][GlcNAc(b1-4)]Man(b1-4)GlcNAc(b1-4)GlcNAc
# Summary of the method: as §1
# [26] = target: Neu5Ac(a2-3)Gal(b1-4)GlcNAc(b1-3)Gal
# Summary of the method: as §1
# [27] = target: Neu5Ac(a2-3)Gal(b1-4)GlcNAc(b1-3)Gal(b1-3)GlcNAc
# Summary of the method: as §1
# [28] = target: Neu5Ac(a2-3)Gal(b1-4)GlcNAc(b1-3)Gal(b1-4)GlcNAc
# Summary of the method: as §1
# [29] = target: Neu5Ac(a2-3)Gal(b1-4)GlcNAc(b1-3)Gal(b1-4)GlcNAc(b1-2)Man(a1-3)[Neu5Ac(a2-3)Gal(b1-4)GlcNAc(b1-3)Gal(b1-4)GlcNAc(b1-2)Man(a1-6)]Man(b1-4)GlcNAc(b1-4)GlcNAc
# Summary of the method: as §1
# [30] = target: Neu5Ac(a2-3)Gal(b1-4)GlcNAc(b1-3)Gal(b1-4)GlcNAc(b1-3)Gal(b1-4)GlcNAc
# Summary of the method: as §1
# [31] = target: Neu5Ac(a2-3)Gal(b1-4)GlcNAc(b1-3)Gal(b1-4)GlcNAc(b1-3)Gal(b1-4)GlcNAc(b1-2)Man(a1-3)[Neu5Ac(a2-3)Gal(b1-4)GlcNAc(b1-3)Gal(b1-4)GlcNAc(b1-3)Gal(b1-4)GlcNAc(b1-2)Man(a1-6)]GalNAc
# Summary of the method: as §1
# [32] = target: Neu5Ac(a2-3)Gal(b1-4)GlcNAc(b1-3)Gal(b1-4)GlcNAc(b1-3)GalNAc
# Summary of the method: as §1
# [33] = target: Neu5Ac(a2-3)Gal(b1-4)GlcNAc(b1-3)Gal(b1-4)GlcNAc(b1-3)[Neu5Ac(a2-3)Gal(b1-4)GlcNAc(b1-3)Gal(b1-4)GlcNAc(b1-6)]GalNAc
# Summary of the method: as §1
# [34] = target: Neu5Ac(a2-3)Gal(b1-4)GlcNAc(b1-3)Gal(b1-4)GlcNAc(b1-6)[Gal(b1-3)]GalNAc
# Summary of the method: as §1
# [35] = target: Neu5Ac(a2-3)Gal(b1-4)GlcNAc(b1-3)Gal(b1-4)[Fuc(a1-3)]GlcNAc
# Summary of the method: as §1
# [36] = target: Neu5Ac(a2-3)Gal(b1-4)GlcNAc(b1-3)GalNAc
# Summary of the method: as §1
# [37] = target: Neu5Ac(a2-3)Gal(b1-4)GlcNAc(b1-3)[Neu5Ac(a2-3)Gal(b1-4)GlcNAc(b1-6)]GalNAc
# Summary of the method: as §1
binder,measurement,setting,value
B1,glycan array binding signal (z-score),[1],-0.338
same,glycan array binding signal (z-score),[2],-0.508
same,glycan array binding signal (z-score),[3],-0.321
same,glycan array binding signal (z-score),[4],0.11
same,glycan array binding signal (z-score),[5],-0.085
same,glycan array binding signal (z-score),[6],-0.393
same,glycan array binding signal (z-score),[7],-0.333
same,glycan array binding signal (z-score),[8],0.047
same,glycan array binding signal (z-score),[9],-0.073
same,glycan array binding signal (z-score),[10],-0.283
same,glycan array binding signal (z-score),[11],0.438
same,glycan array binding signal (z-score),[12],-0.391
same,glycan array binding signal (z-score),[13],-0.446
same,glycan array binding signal (z-score),[14],-0.697
same,glycan array binding signal (z-score),[15],-0.238
same,glycan array binding signal (z-score),Neu5Ac(a2-3)Gal(b1-4)Glc,0.997
same,glycan array binding signal (z-score),[16],-0.021
same,glycan array binding signal (z-score),[17],-0.249
same,glycan array binding signal (z-score),[18],-0.236
same,glycan array binding signal (z-score),[19],-0.552
same,glycan array binding signal (z-score),[20],-0.039
same,glycan array binding signal (z-score),[21],0.133
same,glycan array binding signal (z-score),[22],-0.001
same,glycan array binding signal (z-score),[23],-0.388
same,glycan array binding signal (z-score),[24],0.847
same,glycan array binding signal (z-score),[25],-0.44
same,glycan array binding signal (z-score),[26],-0.268
same,glycan array binding signal (z-score),[27],0.117
same,glycan array binding signal (z-score),[28],-0.729
same,glycan array binding signal (z-score),[29],0.704
same,glycan array binding signal (z-score),[30],-0.258
same,glycan array binding signal (z-score),[31],0.516
same,glycan array binding signal (z-score),[32],-0.51
same,glycan array binding signal (z-score),[33],-0.103
same,glycan array binding signal (z-score),[34],-0.214
same,glycan array binding signal (z-score),[35],0.411
same,glycan array binding signal (z-score),[36],0.718
same,glycan array binding signal (z-score),[37],-0.228
